Assay results published in paper PMC9911399, “Two distinct binding modes provide the RNA-binding protein RbFox with extraordinary sequence specificity”.
Changes are numbered by the printed parent chain; changes in the protein carry UniProt numbers. The list shows a part of the results.

T1: RBFOX1 RRM (Homo sapiens, UniProt Q9NWB1 109-208)
T1 sequence: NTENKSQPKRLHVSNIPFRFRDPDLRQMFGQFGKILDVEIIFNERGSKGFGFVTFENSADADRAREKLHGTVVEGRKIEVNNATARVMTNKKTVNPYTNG

B1: UCGUAAA (DNA:RNA)
RNA: GGGAGACCGGAAUUCAGAUUGUCCUCGUAAAUUAAAUCCCGUCGUAGCCACCA
DNA 1: CAATCTGAATTCCGGTCTCCC
DNA 2: TGGTGGCTACGACGGGATT
B2: ACUCAUU (DNA:RNA)
RNA: B1 RNA with U25A, G27U, U28C, A30U, A31U
DNA 1: CAATCTGAATTCCGGTCTCCC
DNA 2: TGGTGGCTACGACGGGATT
B3: GAUAGAG (DNA:RNA)
RNA: B1 RNA with U25G, C26A, G27U, U28A, A29G, A31G
DNA 1: CAATCTGAATTCCGGTCTCCC
DNA 2: TGGTGGCTACGACGGGATT
B4: UCUAUUA (DNA:RNA)
RNA: B1 RNA with G27U, U28A, A29U, A30U
DNA 1: CAATCTGAATTCCGGTCTCCC
DNA 2: TGGTGGCTACGACGGGATT
B5: UUCCACA (DNA:RNA)
RNA: B1 RNA with C26U, G27C, U28C, A30C
DNA 1: CAATCTGAATTCCGGTCTCCC
DNA 2: TGGTGGCTACGACGGGATT
B6: GUCCAUC (DNA:RNA)
RNA: B1 RNA with U25G, C26U, G27C, U28C, A30U, A31C
DNA 1: CAATCTGAATTCCGGTCTCCC
DNA 2: TGGTGGCTACGACGGGATT
B7: GCACGAA (DNA:RNA)
RNA: B1 RNA with U25G, G27A, U28C, A29G
DNA 1: CAATCTGAATTCCGGTCTCCC
DNA 2: TGGTGGCTACGACGGGATT
B8: UUUUGGA (DNA:RNA)
RNA: B1 RNA with C26U, G27U, A29G, A30G
DNA 1: CAATCTGAATTCCGGTCTCCC
DNA 2: TGGTGGCTACGACGGGATT
B9: UAUCAGC (DNA:RNA)
RNA: B1 RNA with C26A, G27U, U28C, A30G, A31C
DNA 1: CAATCTGAATTCCGGTCTCCC
DNA 2: TGGTGGCTACGACGGGATT
B10: AGUUUUC (DNA:RNA)
RNA: B1 RNA with U25A, C26G, G27U, A29U, A30U, A31C
DNA 1: CAATCTGAATTCCGGTCTCCC
DNA 2: TGGTGGCTACGACGGGATT
B11: CCGUCGA (DNA:RNA)
RNA: B1 RNA with U25C, A29C, A30G
DNA 1: CAATCTGAATTCCGGTCTCCC
DNA 2: TGGTGGCTACGACGGGATT
B12: UUGAUUC (DNA:RNA)
RNA: B1 RNA with C26U, U28A, A29U, A30U, A31C
DNA 1: CAATCTGAATTCCGGTCTCCC
DNA 2: TGGTGGCTACGACGGGATT
B13: GAGUACA (DNA:RNA)
RNA: B1 RNA with U25G, C26A, A30C
DNA 1: CAATCTGAATTCCGGTCTCCC
DNA 2: TGGTGGCTACGACGGGATT
B14: CGAAGCU (DNA:RNA)
RNA: GGGAGACCGGAAUUCAGAUUGUCCCGAAGCUUUAAAUCCCGUCGUAGCCACCA
DNA 1: CAATCTGAATTCCGGTCTCCC
DNA 2: TGGTGGCTACGACGGGATT
B15: UGCUUUA (DNA:RNA)
RNA: B1 RNA with C26G, G27C, A29U, A30U
DNA 1: CAATCTGAATTCCGGTCTCCC
DNA 2: TGGTGGCTACGACGGGATT
B16: AUUGGUG (DNA:RNA)
RNA: B14 RNA with C25A, G26U, A27U, A28G, C30U, U31G
DNA 1: CAATCTGAATTCCGGTCTCCC
DNA 2: TGGTGGCTACGACGGGATT
B17: CUAACAA (DNA:RNA)
RNA: B14 RNA with G26U, G29C, C30A, U31A
DNA 1: CAATCTGAATTCCGGTCTCCC
DNA 2: TGGTGGCTACGACGGGATT
B18: GACGAGG (DNA:RNA)
RNA: B1 RNA with U25G, C26A, G27C, U28G, A30G, A31G
DNA 1: CAATCTGAATTCCGGTCTCCC
DNA 2: TGGTGGCTACGACGGGATT
B19: AAUCGUA (DNA:RNA)
RNA: B14 RNA with C25A, G26A, A27U, A28C, C30U, U31A
DNA 1: CAATCTGAATTCCGGTCTCCC
DNA 2: TGGTGGCTACGACGGGATT
B20: GUAUACA (DNA:RNA)
RNA: B1 RNA with U25G, C26U, G27A, A30C
DNA 1: CAATCTGAATTCCGGTCTCCC
DNA 2: TGGTGGCTACGACGGGATT

target: T1, RBFOX1 RRM; test: EMSA; HiTS-Eq, 1 nM pool, 10 min; buffer printed only for the single-RNA assays: 10 mM Tris pH 7.5, 150 mM NaCl, 3.4 mM EDTA, 0.001% NP-40, 30 C; settings: tags: His6 N-terminal (pET28a); label: 5' 32P
Procedure, shortened: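 A pool of RNA with 7 randomized nucleotides, 5′-radiolabelled and with DNA-annealed flanks, was equilibrated at 1 nM for 10 min in 50 µL with purified RbFox RRM, wild type or mutant, across increasing protein concentrations. Free RNA was separated by 8% native PAGE, excised, reverse-transcribed, barcoded by PCR and sequenced. Relative association constants were obtained from read-count changes of each RNA species versus the control reaction and normalised to the cognate motif.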

| Binder | binding signal |
| --- | --- |
| B1 | 0.00527 KA relative to UGCAUGU |
| B2 | 0.00186 KA relative to UGCAUGU |
| B3 | 0.0144 KA relative to UGCAUGU |
| B4 | 0.00279 KA relative to UGCAUGU |
| B5 | 0.00262 KA relative to UGCAUGU |
| B6 | 0.00868 KA relative to UGCAUGU |
| B7 | 0.0197 KA relative to UGCAUGU |
| B8 | 0.00404 KA relative to UGCAUGU |
| B9 | 0.0125 KA relative to UGCAUGU |
| B10 | 0.0117 KA relative to UGCAUGU |
| B11 | 0.00849 KA relative to UGCAUGU |
| B12 | 0.0169 KA relative to UGCAUGU |
| B13 | 0.006 KA relative to UGCAUGU |
| B14 | 0.00649 KA relative to UGCAUGU |
| B15 | 0.0103 KA relative to UGCAUGU |
| B16 | 0.0275 KA relative to UGCAUGU |
| B17 | 0.0014 KA relative to UGCAUGU |
| B18 | 0.0171 KA relative to UGCAUGU |
| B19 | 0.00315 KA relative to UGCAUGU |
| B20 | 0.00201 KA relative to UGCAUGU |
